The supplement of paper PMC10126150
Values marked as one replicate rest on one cluster of the flow cell; about a third of the high ones do not repeat.

System: ATP
Assay: switch fluorescence ratio, 500 uM ATP over buffer (Cy3 cluster intensity, sum of 5 cycles each) (fold (ratio)); higher = stronger signal-on switching upon ATP binding; sequences stand for … in TCGTCGGCAGCGTCAGATGTGTATAAGAGACAGTTTTTTTTTTTTTTTTTTTTTTTTT…TC
Conditions: aptamer strand: ATP DNA aptamer (quencher-CACCTGGGGGAGTATTGCGGAGGAAGG + anchor), 100 nM annealed; ATP concentration: 500 uM; one replicate
In short: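 For every switch-domain sequence, the fluorescence ratio is the mean of per-cluster values, each being summed target-cycle Cy3 intensity over summed buffer-cycle Cy3 intensity. Clusters outside 100-1000 RFU were excluded. On a modified Illumina MiSeq flow-cell, the Cy3-labelled switching-strand clusters were annealed to 100 nM quencher-labelled ATP aptamer, imaged in selection buffer and then after 15 min with 500 uM ATP at 22 °C. Five such cycles were run, with NaOH stripping and re-annealing between them.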
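Further: ATP exposure 15 min at 22 °C before imaging.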

| Sequence | switch fluorescence ratio |
| --- | --- |
| ATTGCCCTGC | 0.99 |
| CTAAGCGGAA | 1.04 |
| ATTAGTGGAC | 1.02 |
| TTCAAAAAGG | 1 |
| AGAACCGTTA | 1 |
| TCTAGGCAG | 0.99 |
| CTCCGGCTGT | 4.91 |
| TTTTAGTAGA | 1.02 |
| GGTTAAAAAT | 1.11 |
| CACAGTACGA | 1.5 |
| CGGACACGAG | 1.05 |
| CAGCTGCGGC | 1.01 |
| CAATTCGTAC | 1.07 |
| TAACTTATAG | 0.983 |
| TCTTTCCATT | 0.99 |
| GGCCTCGCCG | 0.999 |
| AGGTATTCTT | 1.01 |
| ATTCACAGGC | 1.09 |
| TTCATAGATC | 0.989 |
| TAGTAACGAC | 1.05 |
| AAGCTGCTTG | 1.01 |
| GCGGGAAGAG | 1.06 |
| TTTAAGTAT | 1 |

| Sequence | switch fluorescence ratio |
| --- | --- |
| GATATCAGCG | 0.929 |
| AAGTTCAGGA | 0.999 |
| CGCTTTACAG | 1.07 |
| GTATGTGGG | 1.01 |
| GGAGGGCATA | 1.01 |
| CCGTTATTGA | 1.06 |
| GGAAAAAATC | 1.03 |
| ATTAATGTTT | 1 |
| GCACTGCCGC | 1.15 |
| TACAACTAAT | 1.04 |
| CGAAGGACTC | 1.17 |
| AGCTGCTATG | 0.976 |
| AGGGGCACTA | 1.02 |
| TTTTAGAGCA | 1.01 |
| TTTTTGCTCT | 0.966 |
| GAGGTAGTAG | 0.961 |
| ACTATAAT | 1.08 |
| GAATTCCGCA | 2.15 |
| CACATTCTAG | 0.965 |
| GTGAGATAGA | 0.973 |
| GTAGTAGCAA | 1.68 |
| TTAGAGCACG | 1.02 |
| CGGAACGGCG | 0.988 |

| Sequence | switch fluorescence ratio |
| --- | --- |
| AGCGAAAATT | 1.01 |
| GGGTAAGCAT | 1.04 |
| CGTCCGGCTT | 1.01 |
| CCGTGTAG | 1.05 |
| TTTTAAGCCT | 1.05 |
| CTCCCTAGGG | 1.2 |
| CGGTAATAAA | 1 |
| TGAACCCTGG | 1.03 |
| ATTCACAGCC | 0.998 |
| ATGATAGGCC | 1.02 |
| CCCAGAGCTG | 1.3 |
| GGTTTTGAAC | 1.03 |
| ATTGTTTGG | 0.947 |
| GGTAGTTTTT | 1.02 |
| AAAGTCCGTG | 0.985 |
| CTTTTAAGTC | 1.01 |
| GTTGATTTAG | 1.01 |
| TTGTGGATGA | 1.02 |
| TACATGGGAT | 1 |
| CCGGGTTTAT | 1.05 |
| AACAGTCGGG | 0.995 |
| AGCTGGGAGT | 1.04 |
| CCAGGATTTT | 0.993 |

| Sequence | switch fluorescence ratio |
| --- | --- |
| GATGCATTGT | 1.05 |
| GCTCTGGCGA | 1.3 |
| GCAACCTGCA | 1.06 |
| TAATTGGGTA | 0.971 |
| GAGCGACGTT | 0.935 |
| GATTTTAGCT | 0.975 |
| GTAGGTTTGG | 0.991 |
| CAGTAACGAT | 1 |
| AGTATGGCTC | 0.942 |
| CGATAGAAGA | 0.941 |
| ATCTGGCGC | 0.97 |
| ACGATGGGA | 0.965 |
| GAGTGACTCT | 0.993 |
| AGCATATCTA | 1 |
| GCGAACTGGG | 1.19 |
| ATGGCGTCTA | 1.03 |
| TCAAAGATTG | 1 |
| AGTTTCCAGT | 0.999 |
| ATCCGTCTAT | 1.09 |
| CCCGATGGGC | 0.982 |
| AAAGAGAAGA | 0.982 |
| TTTGTCTTTG | 1.04 |
| TGGCAAACAC | 1.17 |

| Sequence | switch fluorescence ratio |
| --- | --- |
| TAATGTGACT | 0.971 |
| GACAGCAGGA | 1 |
| TCACTTAAAT | 1.01 |
| GTCATTTG | 1.05 |
| CCTTACCGCG | 1.32 |
| GGCGTTAGGG | 1.01 |
| CCCAAATCAT | 1.02 |
| CCCTAGGCCC | 1.03 |
| TTAGGTATCA | 0.946 |
| GTTCTTGGCG | 0.982 |
| TAAAGAGGG | 1 |
| TAGCCGCCCC | 1.53 |
| ATGCTTGGGC | 0.97 |
| GTTCTGCGGC | 1.09 |
| CCTATGGAGT | 1.01 |
| CCCACCTAG | 1.04 |
| TATCAGTTGC | 0.98 |
| TGCAACTAAA | 1.03 |
| ATATAGAGAT | 1.03 |
| CAGATCACTG | 1.06 |
| AGGAGAAGGT | 0.996 |
| CGCTGAGCCG | 1.02 |
| ACGTACCTGG | 1.74 |

| Sequence | switch fluorescence ratio |
| --- | --- |
| TCGGTAGCGG | 0.959 |
| CGGGGACTCC | 1.08 |
| GAGCCAGTGA | 1 |
| TTATGATCAC | 1.04 |
| CTGCCCGGGA | 1.03 |
| TAAGCCAGAC | 1.78 |
| CTGTAGTGAA | 1.21 |
| CTTTGTACTG | 1.05 |
| TCCCCACACC | 1.17 |
| GTTAAAGGCA | 0.948 |
| GGTCATTTTG | 0.992 |
| TGTGACTAAA | 0.985 |
| AGAGATAAAG | 1.03 |
| TAGTGCTGC | 1.04 |
| CACGCACTGC | 2.24 |
| GACAGGGCAA | 1.06 |
| TGTCATGGAA | 0.97 |
| GGCGACACTC | 1.12 |
| CACACAATCG | 1.04 |
| CTAAAGGGGT | 1 |
| GACCTTCCAT | 1.62 |
| GGATCTTTTA | 0.96 |
| TTCGGAAGGT | 0.999 |

| Sequence | switch fluorescence ratio |
| --- | --- |
| CGTTTATACC | 1.07 |
| ACCGTCTTCG | 1 |
| GATCAAACAG | 0.973 |
| TCATCGGTT | 1.02 |
| ACTTGAGGCG | 1.04 |
| AAAGGACCA | 1.02 |
| GTGAAGGGT | 0.989 |
| TTGGGATGAA | 0.959 |
| CTTGCATTTA | 0.986 |
| CAGCCTCACA | 0.982 |
| AGCCTGTGTT | 0.986 |
| TACTTAGAAT | 1.02 |
| AAATGAACAG | 0.941 |
| AATTTAGGTA | 1.02 |
| CCGTTTCTAC | 2.58 |
| CTCCATGAAT | 1.04 |
| GCCAGGCGGC | 1.03 |
| AATCCTAGC | 1.03 |
| ACAGGCCCGT | 1.03 |
